From the RNAGym collection of RNA variant scans (doi:10.7554/elife.90254)
Read counts are not given, so values of variants with three or more changes are uncertain.

B1: LINE1-mini (parent)
chain: GGCAGAGCUCAACACAGCGUGGCAAAGUGGCUGUGGCUAGACUGCC

Variants of: B1
Assay: self-cleavage, relative activity (ratio to wild type); higher = more cleavage; in vitro, sequencing; the parent is a self-cleaving ribozyme

| Variant | self-cleavage |
| --- | --- |
| GGCAUAGCUAAACACAGCGUGGCAAAGUGGCUGUGGCUAGACUGCG [G5U C10A C46G] | 0.01 |
| GGCAUAGCUCAAUACAGCGUGGCAAAGUAGGUGUGGCUAGACUGCC [G5U C13U G29A C31G] | 0.02 |
| GGCAUAGCUAAACACACCGUGGCAAAGUGGCUGUGGCUAGACUGCC [G5U C10A G17C] | 0.02 |
| GGCAUAGCUGAGCACAGCGUAGCAAAUUGGCUGUGGCUAGACUGUC [G5U C10G A12G G21A G27U C45U] | 0 |
| GGCAUAGCUAAACACAGCGUGGCUAAGUGGCUGUGGCUAGACUGCC [G5U C10A A24U] | 0.02 |
| GGCAUAGCUAAACACAGCGCGGCAACGUGGCUGUGGCUAGAUUGCC [G5U C10A U20C A26C C42U] | 0 |
| GGCAUAGCUCAAAAUAGCGUGGCUAAGUGGCUGUGGCUAGACUGCC [G5U C13A C15U A24U] | 0.45 |
| GGCAUAGCUUAACACACCGUGGAAAAGUGGCUGUGGCUUGACUGCC [G5U C10U G17C C23A A39U] | 0.02 |
| GGCAUAGCUCAAUAAAGGGUUGCAAAGUGGCUGUGGCUAGACUGCC [G5U C13U C15A C18G G21U] | 0.07 |
| GGCAUAGCUAAACACAGCGUGGCAAGGUGGCUGUGGCUAGACUGCC [G5U C10A A26G] | 0.03 |
| GGCAUAGCUCAAAACAGAGUGGGAAAGUGGCUGUGGCUAGACUGCC [G5U C13A C18A C23G] | 0.15 |
| GGCAUAGUUCAACAAAGCGUGGCAAAGUGGCUGUGGCAAGACUGCC [G5U C8U C15A U38A] | 0.17 |
| GGCAUAGCUUAACACAGCGUGGCAAAGUUGCUGUGGCUAGACUGCA [G5U C10U G29U C46A] | 0.04 |
| GGCAUAGCUCAAUAGAGCGUGGGAAAGUGGCUGUGGCUAGACUGCC [G5U C13U C15G C23G] | 0.06 |
| GGCAUAGCUCAACAAAGCGUGGCAGAGUGGCUGUGGCUAGACUGCC [G5U C15A A25G] | 0.04 |
| GGCAUAGCUUAACACAGCGUGGCAAAGUGGCUGUGGCUCGACUGCC [G5U C10U A39C] | 0.1 |
| GGCAUAGCUCAAAACAGCGUGGCAAAGUGGCUGUGGCUAGACUGCG [G5U C13A C46G] | 0.02 |
| GGCAUAGCUCAAACCAGCGUGGCAACGUGGCUGUGGCUAGACCGCC [G5U C13A A14C A26C U43C] | 0.01 |
| GGCAUAGCUUAACACAGCGUGGCAAAGUUGCUGUGGCUAGACUGCC [G5U C10U G29U] | 0.04 |

| Variant | self-cleavage |
| --- | --- |
| GGCAUAGCUAAACACAGCGCGGUAAAGUGGCUGUGGCUAGACAGCC [G5U C10A U20C C23U U43A] | 0.01 |
| GGCAUAGUACAACACAGCGUGGCAAAGUGGCUGUGGCUAGACUGCU [G5U C8U U9A C46U] | 0.55 |
| GGCAUAGCUAAACACAGAGUGACAAAGUGAGUGUGGCUAGACUGCC [G5U C10A C18A G22A G30A C31G] | 0.01 |
| GGCAUAGCUCAAAACAUCGUGGCAAAGUGGCUGUGGCUAGACUGCG [G5U C13A G17U C46G] | 0.07 |
| GGCAUAGCUCAACAAAGCAUGGGAAAGUGGCUGUGGCUAGCAUGCA [G5U C15A G19A C23G A41C C42A C46A] | 0.06 |
| GGCAUAGCUCAAUACAGCGUGUAAAAGUGGAUGUGGCUAGUCUGCC [G5U C13U G22U C23A C31A A41U] | 0.01 |
| GGCAUAGCUCAAGACAGCGUGGCAAAGUGGCUGUGGAUAGACUACC [G5U C13G C37A G44A] | 0.04 |
| GGCAUAGCUCAAAACAGCGUGGCAAAGUGGCUGUGGCUAGACUACC [G5U C13A G44A] | 0.01 |
| GGCAUAGUUCAAAUCGGCGUGGCAAGGUGGCUGUGGCUAGACUGCC [G5U C8U C13A A14U A16G A26G] | 0.32 |
| GGCAUAGCUUAACACAGCGUGGCAAAGGUGCUGUGGCUAGACCGCC [G5U C10U U28G G29U U43C] | 0.01 |
| GGCAUAGCUUAACACAGCGAGGCAAAGUGGAUGUGGCUAGACUGCC [G5U C10U U20A C31A] | 0.03 |
| GGCAUAGCUCAACAAACCGUGGCAAAGUGACUGUGUCUAGACUUCC [G5U C15A G17C G30A G36U G44U] | 0.02 |
| GGCAUAGCUCAAAACAGCGUUGCAAUGUGGCUGUGGCUAGACUGCC [G5U C13A G21U A26U] | 0.17 |
| GGCAUAGCUAGACACAGCGUGGCAAAGUGGCUGUGGCUAUAAUGCC [G5U C10A A11G G40U C42A] | 0.01 |
| GGCAUAGCUCAACAGAGCGUGGCACAGUGGCUGUGGCUAGACUUCC [G5U C15G A25C G44U] | 0.02 |
| GGCAUAGCUUAACACAUCGUGGCAAAGUGGCUGUGGCUAGACUGCC [G5U C10U G17U] | 0.06 |
| GGCAUAGCUUAACACAACGUGGCAAAGUGGCUGUGGCUAGACUGCC [G5U C10U G17A] | 0.08 |
| GGCAUAGCUUAACACAACGUGACAAAGUGGCUGUUGCUAGACUGCC [G5U C10U G17A G22A G35U] | 0.02 |
| GGCAUAGUUCAACACAGGGUGGCAAAGUAGAUGUGGCUAGACUGCA [G5U C8U C18G G29A C31A C46A] | 0.11 |

| Variant | self-cleavage |
| --- | --- |
| GGCAUAGCUUAACACAUCGUAGCAAAGUGGCUGUGGCUAGAGUGCC [G5U C10U G17U G21A C42G] | 0.02 |
| GGCAUAGCUCAAAACAGCGUGGCAAAGUGGCGGUGGCUAGACUGCC [G5U C13A U32G] | 0.04 |
| GGCAUAGCUAAACAUAGCAUGGCAAAGUGGCUGUGGCUAGACUGCC [G5U C10A C15U G19A] | 0.03 |
| GGCAUAGCUCAAUACAGCGUGGCAAAGUGGCAGUGGCUAGACUGCC [G5U C13U U32A] | 0.02 |
| GGCAUAGUUCAACACAGCGUGGGAAAGUGGCUGUGGCUAGACUGCC [G5U C8U C23G] | 0.12 |
| GGCAUAGUUCAAUACAGCGUGGCAAAGUUGCUGUGGCUAGACUGCC [G5U C8U C13U G29U] | 0.5 |
| GGCAUAGCUGAACAAAGCGUGGCAAAGUGGCUGUGGCUAGACUGCC [G5U C10G C15A] | 0.02 |
| GGCAUAGCUCAAGACAGAGUGGCAAAGUGGCUGUGGCUAGGCUGCC [G5U C13G C18A A41G] | 0.02 |
| GGCAUAGUUCAACACAGCAUGGCAAGGUGGCUGUGGCUAGACUGCC [G5U C8U G19A A26G] | 0.18 |
| GGCAUAGCUCAAUACAGCGUGGCAAAGUUGCUGUGGCUAGACUGCC [G5U C13U G29U] | 0.08 |
| GGCAUAGCUCAAUACAACGUGGCACAGUGGCUGUGGCUAGACUGCC [G5U C13U G17A A25C] | 0.05 |
| GGCAUAGCUUAACACAGCGUGGCAAAGUGGCUGUGGCUAGUCUGGC [G5U C10U A41U C45G] | 0.05 |
| GGCAUAGCUGAUCACAGCGUGGCAAAGUGGCUGUGGAAAGACUGCC [G5U C10G A12U C37A U38A] | 0.01 |
| GGCAUAGUUCAACACAGCGUAGCUAAGUGGCUGUGGCGAUACUGCC [G5U C8U G21A A24U U38G G40U] | 0.85 |
| GGCAUAGCUAAACACAACGUGGCAAAGUGGCUGUGGCUAGCCUGCC [G5U C10A G17A A41C] | 0.02 |
| GGCAUAGCUAAACAAAGCGUGGCAAAGUGGCUGUGGCUAGACUGCC [G5U C10A C15A] | 0.05 |
| GGCAUAGCUCAAUACAGCGUGGCAAAGUGGCUGUGGCUAUACUGCC [G5U C13U G40U] | 0.05 |
| GGCAUAGCUAAACACAACGUGGCAAAGUGGUUGUGGCUAGACUGCC [G5U C10A G17A C31U] | 0.08 |
